# Test results taken from the BET-seq Pho4 binding data (Le et al. 2018).
# Some of the results follow. The energies were worked out here from pooled read counts, against the library average; single values are noisy.
# Target: T1, Pho4 (S. cerevisiae) (UniProt P07270)
# T1 sequence: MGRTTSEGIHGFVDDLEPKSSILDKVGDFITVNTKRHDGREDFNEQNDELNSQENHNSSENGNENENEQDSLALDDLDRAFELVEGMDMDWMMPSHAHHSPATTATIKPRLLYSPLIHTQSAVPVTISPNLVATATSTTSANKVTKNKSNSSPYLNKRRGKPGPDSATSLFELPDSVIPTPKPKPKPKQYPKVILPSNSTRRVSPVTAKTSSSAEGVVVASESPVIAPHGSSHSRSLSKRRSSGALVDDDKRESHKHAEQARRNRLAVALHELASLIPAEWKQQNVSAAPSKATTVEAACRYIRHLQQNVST
# Experiment: relative binding free energy (BET-seq); higher = weaker binding
# Settings: reference: library average
row,Sequence,relative binding free energy [kcal/mol]
1,AATGGCACGTGCTTGG,-0.21
2,TTTCACACGTGGTTAG,0.15
3,TGGTGCACGTGACTAG,0.01
4,AAGTTCACGTGCTTAG,0.2
5,GGGATCACGTGTGGGA,0.31
6,TTGGCCACGTGGTAGA,-0.11
7,TACAGCACGTGATGGG,0.02
8,AAGAGCACGTGTTAAT,-0.04
9,TGTAACACGTGCTGTT,-0.07
10,ATGTGCACGTGGCAGG,-0.09
11,GCGGTCACGTGCAGGT,-0.08
12,AAGTTCACGTGGTTGT,0.2
13,GACGGCACGTGGTTGG,0.01
14,AATCACACGTGGGGAT,0.07
15,AGGTACACGTGGAAGT,0.09
16,TCTGGCACGTGTAATG,0.03
17,CGGGACACGTGCGTTG,-0.03
18,TCTGTCACGTGGGCGA,-0.04
19,GTGTTCACGTGGTTCC,0.33
20,GATGGCACGTGCCGGG,-0.1
21,TTTGACACGTGAATAG,0.14
22,AGTTGCACGTGGGAGC,-0.17
23,GCTAGCACGTGTTTGT,-0.1
24,TTGTCCACGTGTGTAA,0.07
25,AACGTCACGTGGGGGG,0.04

row,Sequence,relative binding free energy [kcal/mol]
1,TGCTGCACGTGGGATT,-0.15
2,TTGGTCACGTGGATGC,0.23
3,GGACCCACGTGGTGTG,-0.1
4,TTGTGCACGTGGTTGT,-0.06
5,GCTCGCACGTGTGTGG,-0.03
6,GGGGCCACGTGAGTCG,0.1
7,CTCGTCACGTGTAGGT,-0.06
8,TTCAGCACGTGTTAGG,-0.11
9,TGGTACACGTGAGGTG,0.27
10,CCTAGCACGTGGGGTG,-0.22
11,CATGTCACGTGTCTGG,0.07
12,CAAGGCACGTGGGCGG,-0.37
13,ATTGGCACGTGTGGCT,-0.09
14,CGGTCCACGTGGTTTG,0.04
15,TGTGTCACGTGACATG,0.06
16,TAGCTCACGTGTATGT,0.14
17,ACTTTCACGTGTGTGT,0.22
18,TTCGTCACGTGTTAAT,-0.01
19,GTCGGCACGTGAGGCT,0.21
20,TGGATCACGTGACTTG,0.32
21,TACGGCACGTGTTAGT,-0.02
22,ACTGTCACGTGATAGT,0.22
23,CGAGACACGTGAAGGG,0.21
24,GTATACACGTGTGTGT,-0.02
25,TTAGGCACGTGAACGT,0.16

row,Sequence,relative binding free energy [kcal/mol]
1,TCCGTCACGTGGTGAT,0.14
2,GATTGCACGTGTGAGA,0.23
3,ATGTTCACGTGGGGTA,0.11
4,TCCGGCACGTGTGTAG,-0.09
5,AGTAGCACGTGTATAT,-0.11
6,TTTAACACGTGGGTAT,-0.09
7,TGGTGCACGTGAGCCT,0.19
8,GCGGACACGTGTGGAG,0.11
9,CAGTGCACGTGGTGGA,-0.18
10,GAATGCACGTGAGGGC,0.32
11,ACTTTCACGTGGAGGG,0.16
12,TGGTGCACGTGTACAT,-0.04
13,AAGGGCACGTGGGTTG,-0.29
14,GTATGCACGTGGTCTA,-0.03
15,CATTGCACGTGTGTTT,0.03
16,GATTACACGTGTAGGG,0.05
17,TGCTTCACGTGGTTAT,0.26
18,AATGGCACGTGGCTGT,-0.24
19,CTCTTCACGTGGGGGG,0.16
20,GGCTTCACGTGATATT,0.44
21,CTGTTCACGTGGAGAT,0.32
22,GTAGGCACGTGTATGT,-0.1
23,GTGATCACGTGTATTA,0.13
24,CGTAGCACGTGTCGGT,-0.04
25,TGGTACACGTGGACTG,0

row,Sequence,relative binding free energy [kcal/mol]
1,GAAGTCACGTGTTTAT,0.17
2,AAAATCACGTGGTTTA,0.21
3,GTTGTCACGTGTAGAG,0.14
4,TGTTGCACGTGCGTGT,-0.13
5,TGGATCACGTGTGTTA,0.18
6,GAGGACACGTGGGCGA,-0.02
7,GGTCGCACGTGGCTTG,-0.02
8,CGTGTCACGTGTAGGT,0.05
9,GTATGCACGTGTGGCT,-0.11
10,TGTAGCACGTGGGACT,-0.22
11,GCTTACACGTGTGTAG,0.21
12,TATCGCACGTGAAAGT,0.44
13,TCTGACACGTGTTATG,-0.01
14,AGGTTCACGTGGGAAC,0.18
15,GGGGCCACGTGAAGAG,0.17
16,CGTGCCACGTGGTTTA,-0.09
17,TGTGTCACGTGTCAAT,0.11
18,TGATGCACGTGGCCAG,0
19,TAGGGCACGTGGGGAC,-0.43
20,TGGATCACGTGTAGAG,0.15
21,TTGGCCACGTGGACGT,0
22,AAGTGCACGTGGGCGA,-0.12
23,AATATCACGTGAGATT,0.31
24,GGGTTCACGTGGGTAT,0.27
25,AATGTCACGTGGAGAG,0.18

row,Sequence,relative binding free energy [kcal/mol]
1,TTCTTCACGTGAGTTC,0.43
2,ATTGTCACGTGAATGT,0.21
3,ATTGTCACGTGTCATA,0.1
4,AGGGGCACGTGAATAT,0.19
5,TGGAACACGTGGTTAG,0
6,GGGAACACGTGAGAGT,0.18
7,AGAGGCACGTGGGAGG,-0.24
8,GTTCGCACGTGTGAGA,0.11
9,CTATGCACGTGTGGGG,0.01
10,AGGTTCACGTGGGATT,0.24
11,TGTAGCACGTGCTCGT,-0.16
12,AGGGGCACGTGTTTAC,-0.12
13,AGGTGCACGTGTCGAG,0.1
14,GCGTTCACGTGATGTT,0.41
15,TACGTCACGTGGTTAT,-0.06
16,AGGGTCACGTGAGTTA,0.34
17,TTTAGCACGTGAGTTA,0.2
18,GGTACCACGTGGGGGG,-0.16
19,GTGTACACGTGGCAAG,0.06
20,AGATGCACGTGGGTTC,-0.06
21,GGGGGCACGTGTATTC,-0.01
22,ATCAACACGTGAGGGG,0.29
23,TAGTTCACGTGATCGT,0.31
24,CGTATCACGTGCTTGG,0.12
25,GGTAACACGTGCTGTT,-0.12

row,Sequence,relative binding free energy [kcal/mol]
1,ATGGGCACGTGGGGCA,-0.25
2,TCGTGCACGTGTTTCT,0.02
3,AGGGTCACGTGTATGA,0.19
4,GAGTTCACGTGGAAAG,0.43
5,TGCTTCACGTGTGGGA,0.22
6,GCTTTCACGTGTTATG,0.26
7,AAGGGCACGTGGGGTG,-0.3
8,AGGCGCACGTGGTAAT,-0.09
9,AGAGACACGTGTGTTA,-0.02
10,TTAGTCACGTGGGCGA,-0.17
11,TATGCCACGTGTATGG,-0.18
12,TGTGTCACGTGGATGA,0.12
13,TGATACACGTGAGGAG,0.34
14,GTGGACACGTGTGAGG,0.17
15,CGCGGCACGTGCTGTG,-0.1
16,TTGTCCACGTGTGTGG,0.04
17,AGGCCCACGTGGGTTT,-0.09
18,TATTACACGTGTAGGC,0.23
19,ATATGCACGTGGTCAT,-0.26
20,AGTCGCACGTGTATAG,0.04
21,ATAGGCACGTGAATTA,0.05
